Article PMC4336329 (PLoS ONE, 2015)
Among all 310,000 compounds or so, about 14,000 (4.5%) showed an effect of 50% or more. Effects have a minus sign here. The list shows a part of the results.

Target: human ether-à-go-go-related gene (hERG) potassium channel (human, UniProt Q12809)
Assay: primary screen, population patch clamp on CHO cells stably expressing hERG
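Also: peak tail current of the secondary pulse compared with the same well before compound.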

human ether-à-go-go-related gene (hERG) potassium channel, sequence (Q12809 whole entry, looked up): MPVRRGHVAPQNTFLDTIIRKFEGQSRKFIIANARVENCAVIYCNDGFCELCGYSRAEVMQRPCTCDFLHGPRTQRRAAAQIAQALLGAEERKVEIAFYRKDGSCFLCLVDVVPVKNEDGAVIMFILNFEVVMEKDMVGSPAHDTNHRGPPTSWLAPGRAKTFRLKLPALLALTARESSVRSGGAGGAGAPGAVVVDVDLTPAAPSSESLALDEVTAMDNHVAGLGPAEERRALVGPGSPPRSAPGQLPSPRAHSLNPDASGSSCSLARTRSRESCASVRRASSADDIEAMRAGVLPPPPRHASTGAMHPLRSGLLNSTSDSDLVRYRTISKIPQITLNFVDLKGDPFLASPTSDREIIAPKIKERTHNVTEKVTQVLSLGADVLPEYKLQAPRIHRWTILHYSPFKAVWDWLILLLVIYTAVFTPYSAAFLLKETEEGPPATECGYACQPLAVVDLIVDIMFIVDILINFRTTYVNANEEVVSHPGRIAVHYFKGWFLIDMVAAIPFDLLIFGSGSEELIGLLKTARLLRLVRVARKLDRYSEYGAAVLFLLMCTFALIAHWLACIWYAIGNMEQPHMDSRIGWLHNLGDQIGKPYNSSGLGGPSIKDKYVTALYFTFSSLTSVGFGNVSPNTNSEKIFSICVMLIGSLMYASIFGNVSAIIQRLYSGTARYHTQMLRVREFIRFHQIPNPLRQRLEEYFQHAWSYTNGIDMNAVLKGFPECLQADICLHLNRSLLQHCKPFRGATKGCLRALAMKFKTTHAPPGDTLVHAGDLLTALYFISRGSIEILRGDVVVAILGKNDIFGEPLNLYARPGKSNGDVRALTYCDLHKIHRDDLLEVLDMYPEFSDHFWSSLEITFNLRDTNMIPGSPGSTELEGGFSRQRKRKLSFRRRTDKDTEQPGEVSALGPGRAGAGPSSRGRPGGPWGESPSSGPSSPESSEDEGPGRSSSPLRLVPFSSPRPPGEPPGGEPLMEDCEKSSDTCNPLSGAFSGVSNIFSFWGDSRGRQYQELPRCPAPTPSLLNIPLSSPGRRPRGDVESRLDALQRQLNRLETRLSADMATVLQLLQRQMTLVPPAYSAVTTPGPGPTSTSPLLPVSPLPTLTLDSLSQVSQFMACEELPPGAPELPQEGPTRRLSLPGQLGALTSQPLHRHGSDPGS

| SMILES | hERG current change (%, negative = inhibition) at 10uM [%] |
| --- | --- |
| COc1ccc(CCNC(=O)CCCc2ccccc2)cc1OC | 8.91 |
| Fc1ccc(NC(=S)NC2CCCCC2)c(F)c1F | 8.12 |
| Cc1cccc(C)c1NC(=S)NCc1ccncc1 | 15.1 |
| Cc1ccc(N(Cc2ccccc2)C(=O)c2cccc(S(=O)(=O)N3CC(C)OC(C)C3)c2)cc1 (stereo not drawn) | -7.01 |
| COCCNC(=O)C(=O)N/N=C(\C)CC(=O)Nc1cccc(C(F)(F)F)c1 | 8.17 |
| Cn1cc(CN2CCC(C(O)CCc3ccccc3)CC2)c(-c2ccccc2F)n1 (stereo not drawn) | -71.3 |
| O=C(c1ccccc1Cc1ccccc1)N1CCN(S(=O)(=O)c2ccccc2F)CC1 | -20.3 |
| CN(Cc1ccccc1)c1nc2c(c(=O)[nH]c(=O)n2C)n1CCCc1ccccc1 | -51.8 |
| CCOC(=O)c1c(NC(=O)CN2CCC(C)CC2)sc(C)c1C | -0.64 |
| Cc1sc2nc(COC(=O)c3ccc(N4CCCC(C)C4)c([N+](=O)[O-])c3)[nH]c(=O)c2c1C (stereo not drawn) | 26.9 |
| CCCCC(=O)NC(NC(=S)N1CCOCC1)C(Cl)(Cl)Cl (stereo not drawn) | -26.7 |
| COc1ccccc1NS(=O)(=O)c1cc(NC(=O)c2cnccn2)ccc1N1CCOCC1 | -18.9 |
| CCN1CCc2c(sc(N)c2C#N)C1 | 5.55 |
| O=C(NCCCn1ccnc1)c1ccc(Cl)cc1 | -2.72 |
| COc1cc(C(O)P(=O)(OCCC(C)C)c2ccc(N(C)C)cc2)cc(OC)c1OC (stereo not drawn) | 10.9 |
| Cc1ccc(S(=O)(=O)N2CCCCC2C(=O)O)cc1 (stereo not drawn) | 6.47 |
| COc1ccc(C(=O)Nn2c(SCC(=O)N3CCC(C)CC3)nc3ccccc3c2=O)cc1 | -20.8 |
| COc1ccc(N2CCN(c3oc(COc4ccccc4Cl)nc3C#N)CC2)cc1 | 0.959 |
| Cc1ccc(C(C)C)c(OCCNS(C)(=O)=O)c1 | 5.94 |

| SMILES | hERG current change (%, negative = inhibition) at 10uM [%] |
| --- | --- |
| CC1(C)Cc2c(sc3ncn4c(=S)[nH]nc4c23)CO1 | 29.7 |
| O=C(c1c(O)c2ccccc2oc1=O)C1CCC1 | 7.19 |
| CCOc1ccc(NC(=O)CCC(=O)OC)cc1 | -1.95 |
| CCCn1c(=N)n(CCOc2ccc(OC)cc2)c2ccccc21 | -59.5 |
| Cc1csc(SCC(=O)Nc2nc(-c3ccccc3)cs2)n1 | -8.35 |
| CC(C)c1ccc(N(C(=O)c2csnn2)C(C(=O)NC(C)(C)C)c2ccncc2)cc1 (stereo not drawn) | -42.8 |
| CC1=C(C#N)C(NC(=O)C2CC2)(C(F)(F)F)C(=O)N1 (stereo not drawn) | -2.06 |
| COc1ccc(C(=O)Nc2cnc(NC(=O)c3cccs3)cc2C)cc1 | 2.82 |
| O=C(O)c1cccc2sc3cc(Cl)ccc3c(=O)c12 | 3.22 |
| O=S(=O)(Nc1ccc(Cc2ccncc2)cc1)c1ccc(Cl)cc1 | 12.4 |
| COc1ccc(NC(=O)COC(=O)CNC(=O)C2CCCCC2)cc1 | 6.53 |
| OCCN(CCO)c1ncnc2c1oc1ccc(Br)cc12 | -29.7 |
| O=C1/C(=C\c2cccnc2)SC(=S)N1c1ccc(F)cc1 | 12.3 |
| COc1ccc(C(=O)N2CCN(c3nc(C4CC4)nc4sc(C)c(C)c34)CC2)cc1.Cl | -23.8 |
| Cc1nn(C)c(C(=O)Nc2cccc(CN3CCOCC3)c2)c1Br | -7.27 |
| Cc1cc(NC(=O)c2cc(-c3ccc(Br)cc3)on2)no1 | 17.6 |
| O=C(COC(=O)c1cccc(S(=O)(=O)N2CCCC2)c1)Nc1ccccc1 | 26.8 |
| O=C(Nc1ccccc1)N(CCCN1CCOCC1)Cc1cc2cc3c(cc2[nH]c1=O)OCCO3 | -2.99 |
| COCCn1nnnc1C(C(C)C)N1CCC(Cc2ccccc2)CC1.Cl (stereo not drawn) | -46.4 |

| SMILES | hERG current change (%, negative = inhibition) at 10uM [%] |
| --- | --- |
| CN(/C(=N\S(=O)(=O)c1ccccc1)c1ccccc1)c1ccc(O)cc1 | -0.143 |
| OC(c1ccccc1)c1nccc2ccccc12 (stereo not drawn) | 9.28 |
| Cc1ccc(C)c(N2CCN(C(=O)CCCCCn3c(=S)[nH]c4ccc(N5CCOCC5)cc4c3=O)CC2)c1 | 9.11 |
| CCCNC(=O)c1[nH]c(C)c(C(C)=O)c1C | 19.3 |
| CCCc1nn2c(=O)cc(COc3ccc(NC(=O)c4ccco4)cc3)nc2s1 | 5.08 |
| Cn1nnc2cc(C(=O)NC3CC3)ccc21 | -23.8 |
| CCOC(=O)C1CCN(C(=O)C(C)Sc2ccc(Cl)cc2)CC1 (stereo not drawn) | -27.9 |
| O=C(CSc1nnc(-c2c[nH]c3ccccc23)n1-c1ccc(F)cc1)NCc1ccco1 | -22 |
| Cn1c(=O)c2c(nc(CN3CCCCC3)n2CCCc2ccccc2)n(C)c1=O | -29.1 |
| COCc1cc(CN2CCCC(C(=O)c3cccc(C(F)(F)F)c3)C2)ccc1OC (stereo not drawn) | -63.1 |
| CS(=O)(=O)N1N=C(c2cccs2)CC1c1ccc(Cl)o1 (stereo not drawn) | -8.09 |
| N#Cc1c(N2CCNCC2)nc(-c2ccco2)c2c1CCCC2 | -11.2 |
| NNC(=O)CCS(=O)(=O)c1ccc2ccccc2c1 | 16.1 |
| CC1CCCC(C)N1C(=O)c1ccc(S(=O)(=O)N2CCCC2)cc1 (stereo not drawn) | -0.197 |
| COCCN1C=C2C(=O)C(C)(OC(=O)C3CCCC3)C(=O)C(c3ccccc3)=C2C=C1CCCC(=O)OC (stereo not drawn) | -2.4 |
| CC(C)NCCOCCSc1ccc(Cl)cc1.O=C(O)C(=O)O | -30.2 |
| CCO[C@@H]1OC(C(=O)N2CCN(C)CC2)=C[C@H](c2csc3ccccc23)[C@H]1CCCO | -4.86 |
| CC(=O)CSc1nc2ccccc2o1 | 19.9 |
| COc1cc2cc(C(c3nnnn3C(C)(C)C)N3CCc4ccccc43)c(=O)[nH]c2cc1OC (stereo not drawn) | -8.44 |
